# Data published in publication PMC9574860, “Chemical Toolkit for PARK7: Potent, Selective, and High-Throughput” (Journal of Medicinal Chemistry, 2022).
# Screen size: about 7,900 compounds; about 400 (5.1%) showed an effect of 50% or more. This is one part of the list.
# Molecular target: Parkinson's disease protein 7 (PARK7/DJ1) (human, UniProt Q99497)
# Assay: primary screen, percent inhibition; read as competition with a fluorescent probe by fluorescence polarization; higher = more effect of the substance
# Conditions: 100 µM
# In short: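 Covalent fragments at 100 μM final were incubated 2 h with 0.2 μM PARK7, then 20 nM probe JYQ-107 added for a further 2 h. Fluorescence polarization read at 480/520 nm; relative FP loss versus reference controls gave remaining enzyme activity.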
# Sequence of Parkinson's disease protein 7 (PARK7/DJ1) (Q99497 whole entry, looked up): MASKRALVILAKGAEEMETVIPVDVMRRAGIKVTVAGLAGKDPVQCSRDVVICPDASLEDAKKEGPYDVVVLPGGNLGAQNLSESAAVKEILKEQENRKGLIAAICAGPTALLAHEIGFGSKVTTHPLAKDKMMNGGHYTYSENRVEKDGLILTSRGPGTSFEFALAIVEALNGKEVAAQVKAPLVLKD
row,Structure (SMILES),Inhibition % [%]
1,Cc1cccc(NC(=O)CCCCl)c1,16
2,Cc1ccc2c(c1)C(NC(=O)C1CSC(=O)N1)C(C)C2 (stereo not shown),3.23
3,C=CCNC(=O)C(C#N)=Cc1cccc(F)c1,25.3
4,CS(=O)(=O)C(C#N)=Cc1cccc(Cl)c1Cl,7.8
5,C=CC(=O)NCC1CC(C)OC1C (stereo not shown),9.66
6,C=CC(=O)N1CCN(S(C)(=O)=O)[C@H](C)C1,7.14
7,C=CC(=O)NC(c1ccccn1)C1CCC1 (stereo not shown),8.31
8,Cc1ccc(C=C(C#N)C(N)=O)c(C)c1,4.01
9,CN(C(=O)CCl)c1ccccc1C(=O)NCc1ccco1,-1.54
10,N#CC(=Cc1ccc(F)cc1)C(N)=O,-1.53
11,COc1cc(C)c(C(C)C)cc1S(=O)(=O)n1ccnc1,4.53
12,C=CC(=O)N1CC=C(C(C)(C)C)CC1,8.33
13,O=C(CCl)c1sccc1Cl,94.4
14,N#Cc1cc(C(=O)NCC2CCc3nccn3C2)c[nH]1 (stereo not shown),16.5
15,C=CC(=O)NCc1cnn(C)c1,11.9
16,Cn1cc(C2NC(=O)C2(C)C)cn1 (stereo not shown),9.65
17,Cc1cc(CNc2nccnc2C#N)ccc1Cl,4.27
18,CC(C)(C)N1CC(Nc2ccc(C#N)nc2)CC1=O (stereo not shown),-0.609
19,COc1ccc(S(=O)(=O)F)cc1C(=O)O,20.2
20,Cc1ccc(OCC2CO2)cc1 (stereo not shown),5.56
21,CC1CN(Cn2nc(-c3ccccc3)oc2=O)CC(C)O1 (stereo not shown),7.53
22,COc1ccc(S(=O)(=O)n2cccn2)cc1C(C)(C)C,9.73
23,C=CC(=O)NCc1nnc(-c2ccncc2F)s1,3.91
24,N#Cc1ccc(S(=O)(=O)CCCl)cc1,0.986
25,Cc1c(F)cccc1NC(=O)N1CCCC12CCOC2=O (stereo not shown),2.48

row,Structure (SMILES),Inhibition % [%]
1,C=CC(=O)NC1CCC1C1CC1 (stereo not shown),4.78
2,Nc1cc(=O)nc(S)n1Cc1ccccc1,13
3,C=CC(=O)N1CC(=O)Nc2cccc3c2C1CCC3 (stereo not shown),7.81
4,CC(C)OCc1cccc(B(O)O)c1,3.49
5,CC1(C)OB(c2cccc(S(N)(=O)=O)c2)OC1(C)C,2.2
6,NC(=O)c1ccc(S(=O)(=O)OCC(F)(F)F)cc1,-2.83
7,OB(O)c1cnn(-c2ccc(C(F)(F)F)cc2)c1,11.3
8,C=CC(=O)N1CCN(CC)C(=O)C1C (stereo not shown),5.08
9,O=c1[nH]nc(-c2cccs2)o1,12.1
10,O=C(CCl)Nc1cccnc1N1CCCC1,18.8
11,O=C(c1cccs1)N1CCC(CS(=O)(=O)F)C1 (stereo not shown),97.1
12,C=CC(=O)N1CCC(CCCn2ccnc2)CC1,3.21
13,N#Cc1ccc(C(F)(F)F)[nH]1,7.52
14,CC1(C)OB(c2ccc3c(c2)C(=O)NCCO3)OC1(C)C,2.85
15,OB(O)c1cccc2c1OCCC2,4.89
16,COc1ccc(NC(=O)c2cccnc2S)cn1,4.24
17,Cl.O=C(CCl)N1CCN(Cc2cccc(Cl)c2)CC1,6.86
18,Cl.O=C(NC1CCNCC1)Oc1ccccc1,6.77
19,CNC(=O)n1ccnc1,75.1
20,C=CC(=O)NCC12CC(CO1)C2,4.75
21,CNC(=O)C(C)(C)CNc1ccc(C#N)nc1,3.68
22,C=CC(=O)Nc1cnn(C)c1C(F)F,3.32
23,C=CC(=O)Nc1nsc(N2CCCC2)n1,16
24,Cc1csc(N2CCN(C3CCOC3=O)CC2)n1 (stereo not shown),5.83
25,C=CC(=O)NC(C)(C)c1nc(C)c(C)s1,12.9

row,Structure (SMILES),Inhibition % [%]
1,O=C(CCl)Nc1ccc(Cl)cc1,60.3
2,Cc1cc(NC(=O)c2cccnc2S)nn1C,4.06
3,C=CC(=O)N1CC(=O)N(C)CC1C (stereo not shown),8.04
4,COC(Cc1ncccn1)OC,11.1
5,N#Cc1ncn(CCOc2ccc(F)cc2)n1,5.39
6,COc1ccc(OC)c(-c2csc(NC(=O)CCl)n2)c1,6.67
7,C=CC(=O)NCCCc1cnn(C)n1,5.99
8,C=CC(=O)Nc1ccccc1C(=O)N1CCOCC1,4.68
9,C=CC(=O)NCC1CCC2(CCCC2)O1 (stereo not shown),4.84
10,CC1(C)OB(c2ccc3c(c2)NC(=O)C3)OC1(C)C,27.3
11,CC(=O)Nc1nn(C)cc1S(=O)(=O)F,14.8
12,Cn1cccc1C(=O)Cn1cnc(C#N)n1,8.8
13,CN1CCN(S(=O)(=O)c2ccc(S)nc2)CC1,18.5
14,N#CN(CCO)c1ccc(F)cc1,6.47
15,CC1(C)OB(C2C3CCN(CC3)S2(=O)=O)OC1(C)C (stereo not shown),4.59
16,COc1ccc(S(=O)(=O)n2ccnc2)cc1C,8.09
17,O=C1CCC(=O)N1Cc1cc(F)cc2cccnc12,11
18,Cc1ccccc1NC(=O)CN1CCSC1=O,9.93
19,O=S(=O)(F)CCN1CCn2c(Cc3ccccc3)nnc2C1,10.2
20,CC1(C)Cc2cccc(Oc3cnc(C#N)cn3)c2O1,-1.06
21,C=CC(=O)N1C[C@@H](OC)C[C@@H]1c1nc(C)no1,8.99
22,NC(=O)N1CCc2cc(S(=O)(=O)F)ccc21,10.9
23,CN1CCN(C(=O)CCl)CC1.Cl,1.98
24,O=C(CCl)N1CCCC1c1ccc2c(c1)OCCCO2 (stereo not shown),4.11
25,C=CC(=O)Nc1ccc2nc(N3CCOCC3)sc2c1,4.46

row,Structure (SMILES),Inhibition % [%]
1,CC1CN(C)CCN1C(=O)C=Cc1cnn(C)c1 (stereo not shown),7.53
2,N#CC(=Cc1ccccc1)C(=O)N1CCCC1,7.15
3,NC(=O)CN(C1CCCC1)S(=O)(=O)C=Cc1ccccc1,7.09
4,N#CCSc1ccccc1NC(=O)CCl,0.0244
5,CC(C)(C)OC(=O)NC1CC=C(B2OC(C)(C)C(C)(C)O2)CC1 (stereo not shown),3.3
6,O=C1NC2(CCCC2)C(=O)N1CCS(=O)(=O)F,19.5
7,C=CC(=O)N1CCC(C)C(C)(C)C1 (stereo not shown),6.89
8,C=CC(=O)Nc1cccc(Cn2cccnc2=O)c1,8
9,CN(Cc1nc2ccccc2c(=O)[nH]1)C1CCOC1=O (stereo not shown),19
10,CNC1CCCN(C(=O)C=Cc2csc(C)n2)C1 (stereo not shown),10.5
11,C=CC(=O)N1CCC(CCC(N)=O)CC1,0.755
12,N#Cc1cnn(-c2ccccc2)n1,3.14
13,Cc1nn(S(=O)(=O)c2ccccc2)c(C)c1C,6.77
14,COc1ccc(NC(=O)CCl)cc1,55.2
15,COc1cc(C)c(C)cc1S(=O)(=O)n1cccn1,6.67
16,O=C(C=Cc1cccnc1)N1CCc2ccccc2C1,2.87
17,CC1CC(N2CCC(O)CC2)C(=O)O1 (stereo not shown),5.67
18,OB(O)C1CCN(Cc2cn(C3CCC3)nn2)C1 (stereo not shown),16
19,FC(F)(F)c1cc(S)ncn1,23.7
20,CC(NC(=O)CCl)c1ccc2ccccc2c1 (stereo not shown),10
21,N#Cc1ncn(CC(=O)N(C2=CCCCC2)C2CC2)n1,29.4
22,C=CC(=O)NC1CCCN(Cc2ccccn2)C1=O (stereo not shown),8.53
23,N#CC(=Cc1ccc(OC(F)F)c(Cl)c1)C(N)=O,8.67
24,CCCc1nnc(NS(=O)(=O)c2ccc(S(=O)(=O)F)cc2)o1,49.9
25,C=C(C)CC(C)C(=O)NCc1cc(=O)[nH]c(S)n1 (stereo not shown),8.98

row,Structure (SMILES),Inhibition % [%]
1,O=C(CCl)NCc1ccc(N2CCCC2=O)cc1,7.36
2,CC1(C)OB(c2ccc(F)cc2F)OC1(C)C,0.286
3,COC(=O)c1cc(B2OC(C)(C)C(C)(C)O2)ccc1NC(=O)OC(C)(C)C,12.2
4,COc1c(C2CCCN2C2CCOC2=O)c(C)nn1C (stereo not shown),2.74
5,Cc1nc(C(C)(C)C)nc(S)c1C(=O)O,1.97
6,C=CC(=O)NCC1CC2CCC(C1)S2 (stereo not shown),2.67
7,O=C(CCl)Nc1ccccc1C(=O)NCc1ccco1,7.43
8,CC(C#N)NS(=O)(=O)c1ccc(S(=O)(=O)F)cc1 (stereo not shown),23.5
9,O=C(c1cccc(F)c1Cl)N1CCC(C2OCCO2)CC1,6.27
10,N#Cc1nc(NCc2ccncc2)ccc1Cl,-1.99
11,O=C(CCl)Nc1cccc(C(F)(F)F)c1,23.1
12,C=CC(=O)Nc1cccc2c1CN(CC(C)C)C2,8.44
13,C=CC(=O)NCc1nnc2ccc(C(F)(F)F)cn12,2.93
14,Cc1ccc(C=C(C#N)C(=O)Nc2nccs2)o1,4.95
15,Cc1cc(B2OC(C)(C)C(C)(C)O2)c(C)cn1,-1.01
16,COc1ccc(CS(=O)(=O)F)cc1[N+](=O)[O-],18.4
17,CS(=O)(=O)OC1CCCCC1,11.8
18,CCc1nc(C)cn1S(=O)(=O)c1cc(C)c(C)cc1OC,11.8
19,C=CC(=O)N1CCCC1CC(=O)c1cnn(C)c1 (stereo not shown),4.28
20,Cc1noc(C)c1Cn1c(-c2ccccn2)noc1=O,0.962
21,COC(OC)c1ccnc(C2CC2)n1,9.42
22,CCN1C(=O)CSC1=C(C#N)C(N)=O,-0.475
23,C=CC(=O)N1CCNC(=O)CC1c1ccccc1 (stereo not shown),9.46
24,N#Cc1ccc(N2CC(O)(c3ccc(F)cc3)C2)cn1,7.79
